# Laboratory results as given in PubChem BioAssay AID588453 (National Center for Advancing Translational Sciences (NCATS), 2011).
# Hit rate of the full screen: of about 390,000 compounds, about 4,000 (1%) were called active. Inconclusive means that the source gave no clear call. Such entries were picked first, then a sample of the others. The call rests on the fitted dose curve; in most records, active means well fitted inhibition curve with a large enough effect; inconclusive means small, poorly fitted or top-dose-only effect; inactive means no such curve, though single readings can be large or run the other way. Potencies beside an inconclusive call are fits to weak or partial responses and may not hold up.
# Molecular target: Thioredoxin reductase 1, cytoplasmic (Rattus norvegicus) (UniProt O89049)
# Chain of UniProt O89049 (O89049 whole entry, looked up): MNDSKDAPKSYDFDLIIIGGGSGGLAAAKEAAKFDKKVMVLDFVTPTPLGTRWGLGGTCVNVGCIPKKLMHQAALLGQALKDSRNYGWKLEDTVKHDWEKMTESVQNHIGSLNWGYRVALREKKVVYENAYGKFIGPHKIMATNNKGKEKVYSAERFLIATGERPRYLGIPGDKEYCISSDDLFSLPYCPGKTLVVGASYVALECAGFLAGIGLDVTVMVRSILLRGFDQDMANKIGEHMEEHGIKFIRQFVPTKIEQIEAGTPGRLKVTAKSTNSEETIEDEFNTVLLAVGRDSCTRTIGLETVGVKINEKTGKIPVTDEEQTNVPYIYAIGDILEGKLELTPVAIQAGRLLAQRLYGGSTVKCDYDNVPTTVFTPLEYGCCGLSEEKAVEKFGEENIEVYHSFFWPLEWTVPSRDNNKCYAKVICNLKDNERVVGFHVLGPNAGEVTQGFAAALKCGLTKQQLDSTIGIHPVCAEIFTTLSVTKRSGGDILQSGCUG
# Assay: qHTS Assay for Inhibitors of Mammalian Selenoprotein Thioredoxin Reductase 1 (TrxR1): qHTS; further: nearly all actives have a fitted effect of over 65% in size
# Details: recombinant rTrxR1, NADPH fluorescence consumption, selenite substrate; series mostly up to 114 µM; activity change, negative = inhibition: at the top concentration
# In short: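 Rat TrxR1 (90 nM in the dispensed reagent) was pre-reduced with 400 uM NADPH for 5 min at room temperature, then incubated with compound for 15 min. After 400 uM selenite was added, NADPH fluorescence (Ex 340/Em 450 nm) was followed for 8 min.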
# On the % scale 0 is the no-effect control and ±100 the full control effect; potency means the concentration at half of the fitted maximal effect; tags describe the fitted curve by direction and shape.
Compound,"activity change, negative = inhibition",Potency
CCC1=NN2C(=N)/C(=C\c3ccc(OCCOc4ccc(NC(C)=O)cc4)cc3)C(=O)N=C2S1,inactive: 8.81%,
O=C(NCCC(=O)N(Cc1ccco1)Cc1cccs1)c1ccc([N+](=O)[O-])cc1,,"inconclusive: 20 µM [inhibitor, partial curve]"
Cc1coc2cc3oc(=O)c(CC(=O)NCc4cccc(Cl)c4)c(C)c3cc12,inactive: 16.9%,
Cc1ccc(Cl)cc1N1CCN(C(=O)CNC(=O)c2ccc(Br)o2)CC1,,"inconclusive: 50.1 µM [inhibitor, partial curve]"
COc1ccc(C(=O)Cn2c(Cl)nc3c2c(=O)n(C)c(=O)n3C)cc1,inactive: 26.4% [at 57.1 µM],
CCCCCCCCCCC[N+](C)(C)CC/C=C1/c2ccccc2Sc2ccc(Cl)cc21,,"inconclusive: 10 µM [inhibitor, partial curve, poor fit]"
O=C(NCCc1ccccc1)c1nn(-c2ccc(F)cc2)nc1CO,inactive: 34.7%,
CCC1CCCCN1C(=O)CSc1nnc(-c2ccco2)o1 (stereo not drawn),,"inconclusive: 35.5 µM [inhibitor, single point]"
C[C@@H](NC(=O)OC(C)(C)C)c1nnc(S(=O)(=O)Cc2ccccc2)o1,,active: 0.316 µM
O=C(c1ccc(Br)cc1)C(CN1CCOCC1)c1ccccc1 (stereo not drawn),,"inconclusive: 25.1 µM [inhibitor, single point]"
COc1ccccc1CNC(=O)c1ccc(-c2ccccc2Cl)o1,,"inconclusive: 28.2 µM [inhibitor, single point]"
COc1ccc(S(=O)(=O)Nc2ccc3c(c2)OCO3)cc1,inactive: -3.21%,
COc1cc2ncc(C(=O)c3ccc(C)cc3)c(N3CCCCC3)c2cc1OC,inactive: 1.82%,
Cc1ccc(S(=O)(=O)/N=C2\C=C(Nc3ccc(O)cc3)C(=O)c3ccccc32)cc1,,"inconclusive: 89.1 µM [inhibitor, single point]"
Cc1cccc(NC(=O)CCC(=O)N/N=C/c2cc([N+](=O)[O-])ccc2O)c1,inactive: -2.56%,
CCC(=O)Nc1ccccc1Oc1ccccc1,inactive: 7.23% [at 57.1 µM],
CN(C)S(=O)(=O)c1cccc(NC(=S)NCc2ccc3c(c2)OCO3)c1,,"inconclusive: 79.4 µM [inhibitor, single point]"
CCN(CC)S(=O)(=O)c1cccc(NC(=O)COC(=O)/C=C/c2ccco2)c1,,"inconclusive: 79.4 µM [inhibitor, single point]"
CC(=O)N1CCN(C(=S)c2ccc(Cl)cc2)CC1,inactive: -2.88%,
CC1CCCC(n2cnc3cc(C(=O)O)ccc32)C1C (stereo not drawn),,"inconclusive: 79.4 µM [inhibitor, single point]"
Cc1cc(C)c(S(=O)(=O)N/N=C/c2ccc([N+](=O)[O-])o2)c(C)c1,,active: 12.6 µM
N#CC1=C(N)C2=CCCC[C@H]2[C@H](c2ccc(Br)cc2)C1(C#N)C#N,,active: 5.01 µM
Cc1oc(-c2ccccc2Cl)nc1Cn1c(SCc2cccc(F)c2)nc2cccnc21,inactive: -1.33%,
Cc1ccc2nc(Nc3ccc(C)c(F)c3)c3nncn3c2c1,inactive: 20.9%,

Compound,"activity change, negative = inhibition",Potency
O=C(c1ccc2c(=O)n(Cc3ccco3)c(=S)[nH]c2c1)N1CCCC1,,"inconclusive: 44.7 µM [inhibitor, partial curve]"
COc1ccccc1N(CC1CO1)S(=O)(=O)c1ccccc1 (stereo not drawn),,"inconclusive: 22.4 µM [inhibitor, full curve]"
Nc1nc2c(nc(Br)n2C2O[C@H]3COP(=O)(O)O[C@@H]3C2O)c(=O)[nH]1 (stereo partly drawn),,"inconclusive: 0.158 µM [inhibitor, full curve, poor fit]"
COc1ccc2cc(C(=O)NCc3ccc4c(c3)CCN4C(=O)c3ccc(F)cc3)[nH]c2c1,inactive: -8.1% [at 57.1 µM],
Cn1ccsc1=NC(=O)c1ccc(CS(C)(=O)=O)cc1,,"inconclusive: 89.1 µM [inhibitor, partial curve, poor fit]"
COc1cc(C)cc2oc(=O)c(CC(=O)NCCc3ccc(Cl)cc3)c(C)c12,inactive: 31.6%,
N#Cc1ccc(C(=O)N2CCN(c3ncccn3)CC2)cc1,inactive: 11.9% [at 57.1 µM],
C/C=C\C=C/C(=O)Nc1cccc(C2=NOC3(C2)C[C@@H](C(N)=O)N(C(=O)c2ccc(Cl)cc2)C3)c1 (stereo partly drawn),,"inconclusive: 31.6 µM [inhibitor, single point]"
O=C(OCc1cc(=O)n2nc(C3CCCCC3)sc2n1)c1ccc(F)cc1,inactive: 17.1% [at 57.1 µM],
CCCn1nnc(NC(=O)c2ccc(-c3cccc(Cl)c3)o2)n1,inactive: -13.5%,
CCCCS(=O)(=O)/C=C\C=C/S(=O)(=O)CCCC,,active: 3.55 µM
CCCCCC(=O)NC(=S)Nc1ccc(NC(=O)c2ccco2)cc1,,"inconclusive: 11.2 µM [inhibitor, full curve]"
O=C(Nc1cccc(Cl)c1)c1ccc2c(c1)CCN2S(=O)(=O)c1ccccc1,inactive: 18%,
CCCOc1ccc(/C(O)=C2/C(=O)C(=O)N(CCN(C)C)C2c2ccncc2)cc1 (stereo not drawn),,"inconclusive: 28.2 µM [inhibitor, single point]"
C/C(=N/NC(=O)C(O)(c1ccccc1)c1ccccc1)c1ccc([N+](=O)[O-])o1,,"inconclusive: 22.4 µM [inhibitor, single point]"
O=C1CN(Cc2ccccc2)C(=NCc2ccco2)S1,,"inconclusive: 56.2 µM [inhibitor, partial curve]"
O=C(Nc1ccc(S(=O)(=O)Nc2cnc3ccccc3n2)cc1)c1ccc(Br)o1,,"inconclusive: 5.01 µM [inhibitor, partial curve, poor fit]"
O=C(NCSc1ccnc(SCNC(=O)c2ccc(F)cc2)n1)c1ccc(F)cc1,,"inconclusive: 3.98 µM [inhibitor, single point]"
Oc1ccc(/C=N/N2CCCCC2)cc1O,,"inconclusive: 31.6 µM [inhibitor, full curve]"
O=C(c1ccccc1)c1ccc2nc(-c3ccco3)c(-c3ccco3)nc2c1,,active: 2.82 µM
COc1cccc(C(=O)NC(=O)Nc2cc(C)[nH]n2)c1,inactive: 24.2%,
Cc1ccc(C)n1Cc1ccccc1Cl,,"inconclusive: 89.1 µM [inhibitor, partial curve]"
CC(C)(C)c1ccc(C(=O)NCc2cccnc2)cc1,inactive: 6.28%,
NS(=O)(=O)c1ccc(NC(=S)NNC(=O)c2ccc(Br)o2)cc1,,"inconclusive: 79.4 µM [inhibitor, single point]"
